Test results from publication PMC3599065.
Substitutions are numbered along the chain they refer to. Results are given in words; binding and its absence hold for the method and conditions named. In cells and extracts the contact can be indirect. Some entries that bind do so weakly or less than the wild type. For some assays here: Sequences can lack the tags named with a protein. Each block holds one binder with its values, some of them ahead of it.

Legend:
TAP-JIP3-LZ4A (mouse) = target: T1, TAP-JIP3-LZ4A (mouse) (UniProt Q9ESN9); experiment: pull-down; lysates of HEK293T cells expressing a TAP-tagged JIP1 or JIP3 construct with V5-KLC, V5-KHC and a GFP-tagged partner (GFP-JIP3, GFP-JIP1, GFP-DLK or GFP-APP-C constructs), precipitated with streptavidin sepharose, western blot
T1 sequence: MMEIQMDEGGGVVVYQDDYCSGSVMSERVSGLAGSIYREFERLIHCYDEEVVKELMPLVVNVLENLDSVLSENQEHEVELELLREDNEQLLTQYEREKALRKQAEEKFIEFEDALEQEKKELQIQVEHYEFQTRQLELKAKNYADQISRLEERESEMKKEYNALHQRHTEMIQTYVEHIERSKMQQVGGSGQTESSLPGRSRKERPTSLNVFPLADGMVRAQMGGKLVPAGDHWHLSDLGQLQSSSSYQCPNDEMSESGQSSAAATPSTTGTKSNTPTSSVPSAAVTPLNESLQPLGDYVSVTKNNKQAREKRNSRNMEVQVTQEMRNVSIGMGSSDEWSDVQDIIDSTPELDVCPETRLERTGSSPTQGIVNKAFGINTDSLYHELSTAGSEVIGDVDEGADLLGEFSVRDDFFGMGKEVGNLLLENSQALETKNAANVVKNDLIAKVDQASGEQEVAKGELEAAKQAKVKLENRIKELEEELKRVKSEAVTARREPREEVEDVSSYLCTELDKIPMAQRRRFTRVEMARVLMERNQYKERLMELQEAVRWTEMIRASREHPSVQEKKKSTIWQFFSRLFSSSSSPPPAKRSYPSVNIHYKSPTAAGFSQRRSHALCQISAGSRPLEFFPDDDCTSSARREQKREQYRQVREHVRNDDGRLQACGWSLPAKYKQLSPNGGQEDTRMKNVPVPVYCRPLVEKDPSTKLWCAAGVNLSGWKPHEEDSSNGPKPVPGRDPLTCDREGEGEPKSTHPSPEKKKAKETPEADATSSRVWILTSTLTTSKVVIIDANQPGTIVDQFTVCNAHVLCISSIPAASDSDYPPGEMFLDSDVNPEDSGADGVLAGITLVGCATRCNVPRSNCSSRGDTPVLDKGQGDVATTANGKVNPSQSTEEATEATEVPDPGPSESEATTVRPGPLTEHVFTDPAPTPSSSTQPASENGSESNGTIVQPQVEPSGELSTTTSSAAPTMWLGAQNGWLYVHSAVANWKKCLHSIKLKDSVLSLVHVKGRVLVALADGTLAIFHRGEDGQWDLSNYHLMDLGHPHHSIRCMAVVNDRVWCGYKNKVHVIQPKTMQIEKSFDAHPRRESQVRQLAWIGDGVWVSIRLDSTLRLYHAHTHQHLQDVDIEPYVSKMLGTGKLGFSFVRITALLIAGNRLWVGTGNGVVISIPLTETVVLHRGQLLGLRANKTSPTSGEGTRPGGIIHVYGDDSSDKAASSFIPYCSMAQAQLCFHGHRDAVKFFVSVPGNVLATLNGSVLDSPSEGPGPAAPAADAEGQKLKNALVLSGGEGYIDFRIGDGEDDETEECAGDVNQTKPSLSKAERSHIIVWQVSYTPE

[1] = target: T2, JIP1 (endogenous, E17 mouse brain) (mouse (endogenous in E17 brain)) (UniProt Q9WVI9); experiment: co-IP; E17 mouse brain extract immunoprecipitated with 8 ug anti-JIP1 antibody (normal rabbit IgG as control) for 4 hours, Protein A Sepharose, western blot
T2 sequence: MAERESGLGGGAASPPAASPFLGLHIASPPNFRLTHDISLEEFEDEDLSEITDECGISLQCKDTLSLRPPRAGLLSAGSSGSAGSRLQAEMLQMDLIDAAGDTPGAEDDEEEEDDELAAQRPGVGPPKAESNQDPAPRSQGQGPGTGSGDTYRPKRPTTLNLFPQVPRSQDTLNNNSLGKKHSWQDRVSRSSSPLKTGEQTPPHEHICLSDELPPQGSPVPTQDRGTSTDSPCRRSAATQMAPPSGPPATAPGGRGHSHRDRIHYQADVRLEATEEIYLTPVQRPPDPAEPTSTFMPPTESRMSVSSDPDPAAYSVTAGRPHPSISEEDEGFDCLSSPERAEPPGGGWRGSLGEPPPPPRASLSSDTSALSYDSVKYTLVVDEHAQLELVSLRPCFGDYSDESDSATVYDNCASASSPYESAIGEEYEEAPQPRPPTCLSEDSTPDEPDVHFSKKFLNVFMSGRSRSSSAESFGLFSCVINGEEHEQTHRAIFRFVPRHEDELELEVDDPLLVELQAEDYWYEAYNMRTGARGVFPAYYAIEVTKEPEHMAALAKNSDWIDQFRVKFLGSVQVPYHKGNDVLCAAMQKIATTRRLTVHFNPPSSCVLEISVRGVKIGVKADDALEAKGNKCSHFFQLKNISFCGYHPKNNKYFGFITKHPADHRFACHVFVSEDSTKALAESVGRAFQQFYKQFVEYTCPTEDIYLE

binding (TAP-JIP3-LZ4A (mouse)): binds
B1: GFP-JIP1-dCT (in HEK293T) (domain or fragment, UniProt Q9WVI9 1-703)
chain: MAERESGLGGGAASPPAASPFLGLHIASPPNFRLTHDISLEEFEDEDLSEITDECGISLQCKDTLSLRPPRAGLLSAGSSGSAGSRLQAEMLQMDLIDAAGDTPGAEDDEEEEDDELAAQRPGVGPPKAESNQDPAPRSQGQGPGTGSGDTYRPKRPTTLNLFPQVPRSQDTLNNNSLGKKHSWQDRVSRSSSPLKTGEQTPPHEHICLSDELPPQGSPVPTQDRGTSTDSPCRRSAATQMAPPSGPPATAPGGRGHSHRDRIHYQADVRLEATEEIYLTPVQRPPDPAEPTSTFMPPTESRMSVSSDPDPAAYSVTAGRPHPSISEEDEGFDCLSSPERAEPPGGGWRGSLGEPPPPPRASLSSDTSALSYDSVKYTLVVDEHAQLELVSLRPCFGDYSDESDSATVYDNCASASSPYESAIGEEYEEAPQPRPPTCLSEDSTPDEPDVHFSKKFLNVFMSGRSRSSSAESFGLFSCVINGEEHEQTHRAIFRFVPRHEDELELEVDDPLLVELQAEDYWYEAYNMRTGARGVFPAYYAIEVTKEPEHMAALAKNSDWIDQFRVKFLGSVQVPYHKGNDVLCAAMQKIATTRRLTVHFNPPSSCVLEISVRGVKIGVKADDALEAKGNKCSHFFQLKNISFCGYHPKNNKYFGFITKHPADHRFACHVFVSEDSTKALAESVGRAFQQFYKQFVEYTCPTED

binding [1]: binds
B2: JIP3 (endogenous, E17 mouse brain) (protein, UniProt Q9ESN9 1-1337)
chain: T1 sequence with A431L, A438L, A452L, A459L
